According to the supplement of paper PMC7826260:
Some of the results follow. Each Rep nickase domain was tested in vitro on the same pool of single strands for 1 h at 37 °C with 3 µM enzyme; only the middle of the 90-letter strands is printed. The score is log2 (uncut reads / reads without enzyme); uncut sequences lie near 0, cut ones below; no hit call is given. Counts are relative to all reads, so uncut sequences can rise above 0 when many others are cut.

System: T1, Rep nickase domain of chickpea chlorotic dwarf virus
T1 sequence (protein, residues 1-124, tag omitted): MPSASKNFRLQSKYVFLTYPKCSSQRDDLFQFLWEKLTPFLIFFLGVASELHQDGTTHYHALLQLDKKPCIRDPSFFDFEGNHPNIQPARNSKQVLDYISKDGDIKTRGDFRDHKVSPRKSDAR
Experiment: uncleaved DNA left, log2 of reads against the no-enzyme library (log2 ratio); higher = less cleavage (more negative = more Rep cleavage of the k-mer); sequences stand for … in CTCGTCCG…ACCGGAGA
Description: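 A pool of 90-nt single-stranded DNAs with seven random bases just before the constant AC of the nick site (name = the seven bases) was cut by 3 µM recombinant His6-SUMO-tagged Rep nickase domain (300 nM DNA, 50 mM HEPES pH 8.0, 50 mM NaCl, 1 mM MnCl2, 1 h, 37 °C, three replicates). Uncut DNA was amplified and sequenced.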

Row | Sequence | uncleaved DNA left (log2)
1 | CGTTCGC | -0.611
2 | AGAACCC | 1.67
3 | CAGTGGC | -0.778
4 | TTCCCCA | -0.466
5 | GATCGTG | -0.416
6 | GTCCGGA | 1.01
7 | GTTAAAC | 0.827
8 | ATTCCTT | -2.39
9 | CCGTGAA | 0.255
10 | CGCTGTT | -0.841
11 | TTGTCGC | -0.514
12 | GTACGTC | 0.773
13 | CCGATCC | 0.0168
14 | AGGGAGT | 1.38
15 | CACCTGC | -0.569
16 | CGTCCTC | 0.339
17 | TCCATAT | -0.65
18 | ATATCTG | 0.407
19 | TTTCGAT | -0.0743
20 | TCGGTGC | -0.67

Row | Sequence | uncleaved DNA left (log2)
21 | CCTAACA | -2.39
22 | TTCAAAC | 0.0324
23 | TCGGAAC | 0.255
24 | AGGGGTG | 0.414
25 | GACGCTT | -1.56
26 | ACTGGTC | 0.249
27 | CAATTTA | -2.72
28 | TCCTTGG | 0.222
29 | AAATGGT | -2.75
30 | TTGATCT | -1.75
31 | AGCCATT | -0.052
32 | GCACGCG | 0.488
33 | CCAGTCA | -1.04
34 | AGGGCCC | 0.946
35 | TCCACAA | -0.179
36 | TGCGAAC | -0.0227
37 | GTTCGAA | 0.786
38 | ACGGCTC | -0.0809
39 | ATATAGG | 0.958
40 | TGTTCGA | -0.507
